# The whole screen tested about 280,000 compounds, of which about 540 (0.19%) were called active. The inconclusive results got no clear call from the source; some entries with a clear call stand among them for comparison. Calls come from the whole dose curve; as a rule, active = well fitted activation curve with a large enough effect; inconclusive = small, poorly fitted or top-dose-only effect; inactive = flat fitted curve, though single readings scatter. Potencies beside an inconclusive call are fits to weak or partial responses and may not hold up.
# Test: Quantitative High-Throughput Screen for Regulators of Epigenetic Control; note: nearly all actives have a fitted effect of over 60% in size
# Details: murine LDR cells, GFP reporter derepression, 30 h; series mostly up to 53.9 µM
# Outline: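 In this reporter-derepression format, murine cells bearing a silenced integrated CMV-GFP locus incubate with test compound (30 h, 37 C), then are washed and imaged; fluorescent objects of 20–120 um count as induced cells.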
# Potency is the fitted concentration of half-maximal effect; tags give direction and shape of the fitted curve.
row,SMILES,Potency
1,COc1ccccc1NC(=O)CN1CCC(n2c(C)nc3cc(F)ccc32)CC1,inactive
2,CCc1cccc(NC(=O)Cn2nc(CC)n3c(cc4cc(C)ccc43)c2=O)c1,"inconclusive: 12.6 µM [activator, single point]"
3,CCC(Oc1ccc(F)cc1)C(=O)Nc1cc(-c2ccc(C)cc2)no1 (stereo not given),inactive
4,Cc1ccc(OCCOCCn2ccnc2)c(Br)c1,inactive
5,COC(=O)c1cc(CNC(=O)c2ccc(O)c(Cl)c2)ccc1OC,inactive
6,N#CC(c1ccccc1)c1cccc(Cl)n1 (stereo not given),inactive
7,C/C(CCC12CC3CC(CC(C3)C1)C2)=N\NC(N)=S,"inconclusive: 31.6 µM [activator, single point]"
8,CCc1ccc(S(=O)(=O)c2nnn3c2nc(Nc2cccc(C)c2C)c2sccc23)cc1,"inconclusive: 17.8 µM [activator, single point]"
9,Cc1cc(NC(=O)COC(=O)c2oc3c(ccc4ccccc43)c2C)no1,inactive
10,COc1ccc(-c2csc3nc(-c4cccnc4)nc(Cl)c23)cc1OC,inactive
11,C/C(=N\Nc1ncc(Cl)cc1Cl)c1ccccn1,active: 0.631 µM
12,Cc1cc(C(=O)NCCC2=CCCCC2)c(C)o1,"inconclusive: 35.5 µM [activator, single point]"
13,OC[C@@H]1[C@@H](c2ccc(F)cc2)C(c2ccc(F)cc2)=NN1c1ccccc1,inactive
14,FC(F)(F)c1ccc(-c2noc(-c3ccccc3)c2I)cc1,inactive
15,CC(NC(=O)Cn1nc(-c2ccccc2)c2ccccc2c1=O)c1ccccc1 (stereo not given),inactive
16,Cn1ccnc1C(O)c1cc(C(C)(C)C)c(O)c(C(C)(C)C)c1 (stereo not given),"inconclusive: 25.1 µM [activator, single point]"
17,C=CCOc1nc2c(c(=O)n(Cc3ccc(Cl)cc3)c(=O)n2C)n1C,"inconclusive: 5.62 µM [activator, single point]"
18,COc1ccc2c(c1)CCc1c(C(=O)Nc3ccc(C#N)cc3)noc1-2,inactive
19,CC/C(=N/Nc1cccc(C)c1)c1cnnc(SC)n1,"inconclusive: 28.2 µM [activator, single point]"
20,COc1ccc2nc(SCC(=O)Nc3ccc4sc(C)nc4c3)c(C#N)cc2c1,active: 3.55 µM
21,CCOC(=O)C(=O)/C(C#N)=C/Nc1ccccc1,inactive
22,Cn1cc(CNC(=O)c2cc(-c3ccccc3)nc3ccc(Br)cc23)cn1,"inconclusive: 35.5 µM [activator, single point]"
23,CCOC(=O)C1=C(N)Oc2cc(C)[nH]c(=O)c2C1c1ccncc1 (stereo not given),"inconclusive: 14.1 µM [activator, partial curve]"
24,Cc1ccc(/C=C2/SC(=O)NC2=S)o1,inactive
25,Cc1ccc(OCCOCCn2c(-c3ccc(Cl)cc3)nc3ccccc3c2=O)cc1,inactive

row,SMILES,Potency
1,N#CC1=C(N)N2C(=C(C#N)C1c1ccccc1)Sc1ccccc12 (stereo not given),"inconclusive: 25.1 µM [activator, single point]"
2,Cc1cc2n(n1)C(c1sccc1C)Nc1ccccc1-2 (stereo not given),inactive
3,O=C1C(=Cc2cccn2-c2ccccc2)C(=O)c2ccccc21,active: 11.2 µM
4,O=C1O/C(=C/Br)CCC1c1cccc2ccccc12 (stereo not given),"inconclusive: 7.94 µM [activator, partial curve]"
5,Cc1ccc2nc(Cl)c(/C=C/C(=O)c3ccco3)cc2c1,"inconclusive: 35.5 µM [activator, single point]"
6,CCOC(=O)c1[nH]c(C)c(CCC(=O)Nc2c(C)cc(C)cc2C)c1C,inactive
7,Cc1ccc2c(=O)c(C(=O)c3ccccc3)cn(CC(=O)Nc3ccc4c(c3)OCCO4)c2n1,"inconclusive: 31.6 µM [activator, single point]"
8,COc1cc(/C=C2\SC(=O)N(CCNC(=O)c3sc4cc(F)ccc4c3Cl)C2=O)cc(OC)c1OC,active: 17.8 µM
9,CCOc1cc(/C=N\Nc2ccc([N+](=O)[O-])cc2)ccc1OCC(=O)Nc1ccc(C)c(C)c1,"inconclusive: 0.708 µM [activator, full curve, poor fit]"
10,Cc1cc(SCC(=O)NN)c2cc(Br)ccc2n1,inactive
11,O=C(Nc1ccc(Br)cc1)C1CCCN(S(=O)(=O)c2ccc(Br)s2)C1 (stereo not given),"inconclusive: 22.4 µM [activator, single point]"
12,CCc1ccccc1NC(=O)C(CC)Sc1ncnc2c1sc1ccccc12 (stereo not given),"inconclusive: 35.5 µM [activator, single point]"
13,CC1(C)CC(=O)C2=C(C1)OC1=C(C(=O)CC(C)(C)C1)C2c1ccc(O)cc1O,"inconclusive: 5.62 µM [activator, single point]"
14,O=C(CSc1nnc(-c2ccccc2)n1Cc1ccco1)NCc1ccc2c(c1)OCO2,"inconclusive: 35.5 µM [activator, single point]"
15,O=C(Nc1nnc(-c2ccc(Cl)cc2)o1)C1=COCCO1,inactive
16,COC(=O)c1cc(=O)n(Cc2ccc(OC)c(OC)c2)c(=Nc2ccc(F)cc2)s1,"inconclusive: 35.5 µM [activator, single point]"
17,O=C(Nc1ccccc1Oc1ccccc1)c1cc([N+](=O)[O-])ccc1Cl,inactive
18,COCCn1c(SCC(=O)Nc2ccc(F)c(Cl)c2)nc2c(oc3ccccc32)c1=O,"inconclusive: 35.5 µM [activator, single point]"
19,O=C(Nc1cccc(C(F)(F)F)c1)Oc1ccc(Cl)c2cccnc12,"inconclusive: 14.1 µM [activator, single point]"
20,CC(/C=C/c1ccco1)=N\NC(=O)COc1ccc(C)c(C)c1,"inconclusive: 31.6 µM [activator, single point]"
21,NC(=O)COC(=O)c1c2c(nc3ccccc13)CCCCC2,inactive
22,CCOC(=O)c1nnc2c(-c3ccc(OC)cc3)c(C)nn2c1N,"inconclusive: 31.6 µM [activator, single point]"
23,CC(C)CCN1NC2(CCC(C)CC2)NC1=S (stereo not given),"inconclusive: 28.2 µM [activator, single point]"
24,Cn1cc([N+](=O)[O-])c(C(=O)Nc2ccc(-c3nc4ccccc4o3)cc2)n1,inactive
25,Cc1cccc(NC(=O)c2cnn(-c3ccccc3)c2-n2cccc2)c1C,inactive
